For eight substances, binding results are on record in PMC2361802.

By UniProt entry, the sequences of proteins in these tests, tags left out. Where a name states a change or a piece, a line headed by the entry shows the natural chain unless it says otherwise. Residues count along the entry.
UniProt P03372: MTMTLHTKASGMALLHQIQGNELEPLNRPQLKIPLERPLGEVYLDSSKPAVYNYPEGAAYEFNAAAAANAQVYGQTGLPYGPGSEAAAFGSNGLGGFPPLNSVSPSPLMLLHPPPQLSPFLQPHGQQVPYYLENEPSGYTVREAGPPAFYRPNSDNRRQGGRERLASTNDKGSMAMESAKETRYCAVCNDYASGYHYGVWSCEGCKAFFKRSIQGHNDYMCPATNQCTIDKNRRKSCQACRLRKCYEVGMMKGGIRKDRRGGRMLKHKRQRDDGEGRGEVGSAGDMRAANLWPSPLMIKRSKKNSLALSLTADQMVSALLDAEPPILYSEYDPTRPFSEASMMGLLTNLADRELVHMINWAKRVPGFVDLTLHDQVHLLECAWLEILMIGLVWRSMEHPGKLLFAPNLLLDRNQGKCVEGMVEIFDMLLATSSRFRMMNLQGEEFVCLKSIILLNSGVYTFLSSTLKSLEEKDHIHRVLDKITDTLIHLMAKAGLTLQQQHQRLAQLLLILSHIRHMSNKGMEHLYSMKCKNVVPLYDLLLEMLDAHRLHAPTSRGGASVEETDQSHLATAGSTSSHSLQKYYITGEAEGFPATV
GST-ER α AF-2 (263-595): residues 263-595 of P03372
UniProt Q92731: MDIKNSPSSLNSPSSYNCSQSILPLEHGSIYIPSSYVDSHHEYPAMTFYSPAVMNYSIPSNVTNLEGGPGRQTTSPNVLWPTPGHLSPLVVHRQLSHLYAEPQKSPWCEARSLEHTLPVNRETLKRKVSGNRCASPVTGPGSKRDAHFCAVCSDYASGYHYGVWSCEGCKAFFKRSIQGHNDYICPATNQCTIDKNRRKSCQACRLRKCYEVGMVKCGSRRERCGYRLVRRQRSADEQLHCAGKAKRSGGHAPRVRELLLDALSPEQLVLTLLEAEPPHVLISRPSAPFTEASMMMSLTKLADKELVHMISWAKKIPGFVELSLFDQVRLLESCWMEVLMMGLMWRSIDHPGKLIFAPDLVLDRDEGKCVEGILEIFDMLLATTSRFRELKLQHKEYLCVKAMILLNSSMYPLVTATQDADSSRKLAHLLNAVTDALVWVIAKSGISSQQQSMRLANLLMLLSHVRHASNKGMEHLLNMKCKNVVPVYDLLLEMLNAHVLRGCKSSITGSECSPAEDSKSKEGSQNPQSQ
GST-ER β AF-2 (248-530): residues 248-530 of Q92731
UniProt P43246: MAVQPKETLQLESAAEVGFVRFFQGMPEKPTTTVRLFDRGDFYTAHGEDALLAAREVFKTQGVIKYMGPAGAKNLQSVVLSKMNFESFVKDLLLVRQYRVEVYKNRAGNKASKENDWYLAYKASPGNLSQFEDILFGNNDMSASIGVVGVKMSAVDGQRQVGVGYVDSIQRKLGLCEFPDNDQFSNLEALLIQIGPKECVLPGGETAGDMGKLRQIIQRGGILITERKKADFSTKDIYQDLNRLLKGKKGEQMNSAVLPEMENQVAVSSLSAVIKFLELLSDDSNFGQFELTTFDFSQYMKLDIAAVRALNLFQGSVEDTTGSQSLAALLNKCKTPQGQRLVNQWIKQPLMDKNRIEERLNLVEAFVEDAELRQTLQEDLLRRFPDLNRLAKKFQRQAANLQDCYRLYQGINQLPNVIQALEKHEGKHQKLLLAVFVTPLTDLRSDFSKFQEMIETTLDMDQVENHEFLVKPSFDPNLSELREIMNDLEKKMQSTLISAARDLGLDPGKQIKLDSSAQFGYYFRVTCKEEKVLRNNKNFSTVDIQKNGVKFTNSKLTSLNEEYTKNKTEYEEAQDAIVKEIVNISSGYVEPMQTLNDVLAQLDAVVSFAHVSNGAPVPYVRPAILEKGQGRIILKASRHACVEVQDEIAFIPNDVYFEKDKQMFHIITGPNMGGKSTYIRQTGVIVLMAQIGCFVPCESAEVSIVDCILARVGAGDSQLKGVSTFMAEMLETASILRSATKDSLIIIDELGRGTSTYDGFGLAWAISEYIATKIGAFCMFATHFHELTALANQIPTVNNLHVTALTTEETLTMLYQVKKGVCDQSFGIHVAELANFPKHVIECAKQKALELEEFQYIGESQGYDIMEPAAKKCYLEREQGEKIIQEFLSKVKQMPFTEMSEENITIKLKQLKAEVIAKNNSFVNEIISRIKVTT
UniProt Q15648: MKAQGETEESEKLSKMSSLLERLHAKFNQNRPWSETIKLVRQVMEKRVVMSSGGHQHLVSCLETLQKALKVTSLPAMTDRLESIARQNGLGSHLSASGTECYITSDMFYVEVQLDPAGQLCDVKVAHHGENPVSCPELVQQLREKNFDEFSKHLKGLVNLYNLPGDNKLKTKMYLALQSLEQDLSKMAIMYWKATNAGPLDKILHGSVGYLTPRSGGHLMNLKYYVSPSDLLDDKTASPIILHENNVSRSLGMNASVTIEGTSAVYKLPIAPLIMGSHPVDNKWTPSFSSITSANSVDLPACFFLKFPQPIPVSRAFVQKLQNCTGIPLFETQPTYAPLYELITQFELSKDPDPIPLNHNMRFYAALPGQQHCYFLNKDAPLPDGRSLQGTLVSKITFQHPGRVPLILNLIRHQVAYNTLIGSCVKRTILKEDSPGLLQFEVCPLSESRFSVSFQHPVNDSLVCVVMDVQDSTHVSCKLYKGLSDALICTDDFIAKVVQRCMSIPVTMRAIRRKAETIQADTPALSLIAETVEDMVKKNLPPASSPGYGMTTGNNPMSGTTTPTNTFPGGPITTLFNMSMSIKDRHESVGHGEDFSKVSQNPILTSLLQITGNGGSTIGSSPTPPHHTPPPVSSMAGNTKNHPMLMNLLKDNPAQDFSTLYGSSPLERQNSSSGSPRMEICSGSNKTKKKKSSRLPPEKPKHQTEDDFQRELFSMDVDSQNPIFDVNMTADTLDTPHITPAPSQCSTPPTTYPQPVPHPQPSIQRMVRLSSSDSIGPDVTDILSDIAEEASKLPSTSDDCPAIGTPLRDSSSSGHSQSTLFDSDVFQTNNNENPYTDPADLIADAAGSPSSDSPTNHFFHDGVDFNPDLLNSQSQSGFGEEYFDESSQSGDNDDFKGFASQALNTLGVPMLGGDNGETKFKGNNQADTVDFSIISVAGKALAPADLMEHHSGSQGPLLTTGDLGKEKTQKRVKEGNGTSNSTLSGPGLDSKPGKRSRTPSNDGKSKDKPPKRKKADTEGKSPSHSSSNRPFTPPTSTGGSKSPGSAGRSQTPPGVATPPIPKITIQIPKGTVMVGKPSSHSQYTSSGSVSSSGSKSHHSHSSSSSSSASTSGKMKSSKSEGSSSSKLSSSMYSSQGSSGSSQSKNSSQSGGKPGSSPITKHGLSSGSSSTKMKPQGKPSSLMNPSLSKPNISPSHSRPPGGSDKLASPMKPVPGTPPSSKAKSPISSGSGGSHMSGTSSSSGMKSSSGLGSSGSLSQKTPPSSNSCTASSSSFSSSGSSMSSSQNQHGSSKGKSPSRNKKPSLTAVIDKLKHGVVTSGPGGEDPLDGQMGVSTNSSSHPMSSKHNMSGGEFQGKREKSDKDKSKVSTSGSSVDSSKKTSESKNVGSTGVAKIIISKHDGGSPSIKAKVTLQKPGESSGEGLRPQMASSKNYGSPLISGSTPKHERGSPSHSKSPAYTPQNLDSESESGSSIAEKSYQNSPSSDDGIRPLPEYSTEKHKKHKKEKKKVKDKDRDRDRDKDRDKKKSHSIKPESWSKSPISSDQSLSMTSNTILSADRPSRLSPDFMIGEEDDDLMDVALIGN

In test [1] the target is GST-ER α AF-2 (263-595) (human) (UniProt P03372). In words: pull-down; GST fusion on glutathione-sepharose 4B beads, preincubated 30 min with 17-β estradiol (10^-6 M) in NET buffer (20 mM Tris-HCl pH 7.5, 200 mM NaCl, 1 mM EDTA); 35S-labelled in vitro translated protein, 1 h, 4°C; autoradiography; only the target purified.
The target is the same in test [2]. Kind of test: pull-down; GST fusion on glutathione-sepharose 4B beads, preincubated 30 min without 17-β estradiol in NET buffer (20 mM Tris-HCl pH 7.5, 200 mM NaCl, 1 mM EDTA); 35S-labelled in vitro translated protein, 1 h, 4°C; autoradiography; only the target purified.
The target in test [3] is GST-ER β AF-2 (248-530) (human) (UniProt Q92731). Described as above.
The target is the same in test [4]. In words: pull-down; GST fusion on glutathione-sepharose 4B beads, preincubated 30 min with 17-β estradiol (10^-6 M) in NET buffer (20 mM Tris-HCl pH 7.5, 200 mM NaCl, 1 mM EDTA); 35S-labelled in vitro translated protein, 1 h, 4°C; autoradiography; only the target purified.
Test [5] deals with human MutS homologue 2 (hMSH2), endogenous (human (endogenous in Ishikawa and MDA-MB-231)) (UniProt P43246). Kind of test: co-IP; reciprocal IP of endogenous proteins with the antibody raised against hMSH2, immunoblot for ER α and ER β. For orientation: Immunoblotting shows a protein as a band on a membrane.

These are yes or no findings as the source states them, for the method shown. In cells and extracts the contact can be indirect. Some entries that bind do so weakly or less than the wild type.

Consider “FLAG-tagged hMSH2 fragment F1 (1-178) (from UniProt P43246 1-178) (domain or fragment)”, for which the binding entry in test [1] is listed as “no binding”.

As for “FLAG-tagged hMSH2 fragment F2 (179-377) (from UniProt P43246 179-377) (domain or fragment)”, the binding entry in test [1] was “no binding”. For “FLAG-tagged hMSH2 fragment F3 (378-625) (from UniProt P43246 378-625) (domain or fragment)”, the binding entry is on record as “no binding (condition: without 17-β estradiol)” in test [2], “binds” in test [3], “binds” in test [1] and “binds” in test [4]. For the substance “FLAG-tagged hMSH2 fragment F4 (609-888) (from UniProt P43246 609-888) (domain or fragment)”, the binding result in test [3] was “binds”; in test [1], “no binding”; in test [4], “binds”.

For the substance “FLAG-tagged hMSH2 fragment F5 (793-934) (from UniProt P43246 793-934) (domain or fragment)”, the binding entry in test [1] is reported as “no binding”. For “in vitro translated TRAP220 (from UniProt Q15648 1-1581)”, in test [1], the binding result is “binds”. As to “oestrogen receptor α (ER α), endogenous (from UniProt P03372 1-595)”, the binding entry in test [5] is listed as “binds”. Same read-out and setting: the value for “oestrogen receptor β (ER β), endogenous (from UniProt Q92731 1-530)” was “binds”.
